Assay results as given in PMC6919601, “Identification of Plasmodium dipeptidyl aminopeptidase allosteric inhibitors by high throughput screening” (PLoS ONE, 2019).
The campaign covered roughly 110,000 compounds. About 230 (0.21%) showed an effect of 50% or more. Some of the results follow.

target: DPAP1 (Plasmodium falciparum, UniProt Q8IIJ9); test: primary screen, percent inhibition; read by cleavage of a fluorogenic dipeptide substrate; higher = more effect of the substance; parameters: species or system P. falciparum D10 trophozoite lysates; single well
Sequence (Q8IIJ9 whole entry, looked up): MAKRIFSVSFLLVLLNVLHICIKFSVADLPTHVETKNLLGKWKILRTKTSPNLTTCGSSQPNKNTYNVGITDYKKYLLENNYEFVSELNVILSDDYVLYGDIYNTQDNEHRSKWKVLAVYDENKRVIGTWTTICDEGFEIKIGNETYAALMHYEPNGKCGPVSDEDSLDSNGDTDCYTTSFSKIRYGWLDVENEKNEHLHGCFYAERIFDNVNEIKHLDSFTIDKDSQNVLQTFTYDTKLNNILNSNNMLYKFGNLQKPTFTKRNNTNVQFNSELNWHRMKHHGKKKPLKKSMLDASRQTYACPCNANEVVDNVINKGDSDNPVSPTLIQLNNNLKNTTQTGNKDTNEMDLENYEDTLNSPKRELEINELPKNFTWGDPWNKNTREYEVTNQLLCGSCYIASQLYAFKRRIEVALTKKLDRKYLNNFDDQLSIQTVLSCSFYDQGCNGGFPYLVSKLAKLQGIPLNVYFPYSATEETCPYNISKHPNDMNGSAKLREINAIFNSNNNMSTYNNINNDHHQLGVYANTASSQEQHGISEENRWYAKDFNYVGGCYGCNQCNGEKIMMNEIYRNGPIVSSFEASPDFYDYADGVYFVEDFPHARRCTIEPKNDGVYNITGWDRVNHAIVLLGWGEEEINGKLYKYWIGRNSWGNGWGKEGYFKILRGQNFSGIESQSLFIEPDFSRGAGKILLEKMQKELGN
Procedure: HTS was performed in black 384-well plates. The first and last two columns of each plate contained our negative (DMSO) and positive (10 μM JCP410) controls, and the 20 central columns the test compounds at 10 μM. Compounds were first diluted 50-fold into assay buffer (50 mM sodium acetate, 5 mM MgCl2, 10 mM β-mercaptoethanol, and 0.1% CHAPS, pH 5.5) from a 10 mM DMSO stock plates. One microliter of this 200 μM intermediate stock plate was dispensed into the assay plate. […] After 30 min, the reaction was quenched with 20 μL of 0.5 M acetic acid, and the fluorescent intensity measured at 523 nm (λex = 492 nm) using an Analyst HT multimode plate reader (Molecular Devices).
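Further: 30 min substrate incubation versus DMSO and 10 µM JCP410 controls.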

Row | SMILES | % Inhibition @ 10 uM [%]
1 | CCN(CC)CC#CC(O)(c1ccccc1)C1CCCCC1 (stereo not drawn) | -0.902
2 | COc1ccc(C(=N)NOC(=O)c2cc(-c3ccccc3)nc3ccccc23)cc1 | -1.33
3 | O=C(Nc1nc2ccc(F)cc2s1)c1ccco1 | -2.63
4 | Cc1ccc(C(=O)N/C(=C\c2cc(-c3ccccc3)nn2-c2ccccc2)C(=O)N2CCOCC2)cc1 | -5.28
5 | COc1ccccc1C1C(C#N)=C(N)OC2=C1C(=O)c1ccccc1C2=O (stereo not drawn) | -2.21
6 | CCOC(=O)C1=C(C)N=C2SCC(=O)N2C1c1ccc(OC)cc1 (stereo not drawn) | 5.98
7 | O=C(COc1ccccc1)NC1(C(=O)NC2CCCC2)CCCCC1 | 0.361
8 | O=C(NCCO)/C(=C\c1ccsc1)NC(=O)c1ccccc1 | -0.305
9 | N#Cc1cc(NC(=O)c2ccc(F)cc2)c(O)n2c1nc1ccccc12 | 9.38
10 | O=C(Nc1nc2ccccc2[nH]1)C1CC1c1ccccc1 (stereo not drawn) | -9.94
11 | CCCC(O)(CCN1CCCCCC1)c1ccc(Br)cc1 (stereo not drawn) | 2.8
12 | COc1cc(NC(=O)c2ccc(OC(F)F)c(OC)c2)c(OC)cc1Cl | 2.08
13 | COCCCNC(=O)CCc1c(C)nc2c(-c3ccc(F)cc3)c(C)nn2c1C | 6.1
14 | O=C(CNS(=O)(=O)c1cccc2nsnc12)NCc1ccc(Cl)cc1 | -2.9
15 | CCOc1nc(NCc2ccccc2)nc(NCc2cccnc2)n1 | -1.25
16 | NC(=O)c1ccc[n+]([O-])c1 | 0.66
17 | CC(=O)N(C)c1ccc(Br)c2c1C(=O)c1ccccc1C2=O | -5.62
18 | Cc1ccccc1C1CC(=O)NC(SCC(=O)Nc2cccc(F)c2)=C1C#N (stereo not drawn) | -2.8
19 | CC(=O)N/C(=C/c1ccc2c(c1)OCO2)C(=O)O | -2.21
20 | CC(=O)c1ccc(NC(=O)c2ccc(OC(C)C)cc2)cc1 | 0.316
21 | Cc1ccc(-c2ccc(=O)n(CC(=O)NCc3ccccc3Cl)n2)cc1 | -2.99

Row | SMILES | % Inhibition @ 10 uM [%]
22 | CSc1n[nH]c(NCc2cccs2)n1 | 1.74
23 | CCN(CC)CCN(CC(=O)N(C1CCCCC1)C1CCCCC1)C(=O)c1ccco1 | 8.55
24 | O=C(c1cc(-c2ccc(F)cc2)n[nH]1)N1CCN(C(=O)c2ccco2)CC1 | -4.97
25 | CC(=O)c1cnc2c(c(C)nn2-c2ccccc2)c1O | 0.708
26 | CCOc1ccc(C2c3c(oc4ccc(F)cc4c3=O)C(=O)N2Cc2ccco2)cc1OC (stereo not drawn) | 1.74
27 | CCN1CCN(c2csc3ccccc3c2=O)CC1 | 1.97
28 | O=C(Nc1ccc(F)cc1F)c1sc2ccccc2c1Cl | -1.5
29 | COc1cc2c(cc1OC)C(c1cccc(OC)c1OC)NCC2 (stereo not drawn) | 1.66
30 | Cc1ccc(C(=O)Nc2sc3c(c2C(=O)O)CCCC3)cc1 | 2.17
31 | CCCc1ccc(C#N)c(SC(C)(C)C(=O)O)n1 | -0.403
32 | Cc1cc(OCC(=O)NC(C)C)cc(C)c1Br | -8.4
33 | COc1cc(C2C(C#N)=C(N)OC3=C2C(=O)CCC3)ccc1OCC(=O)Nc1ccc(C)cc1C (stereo not drawn) | 0.851
34 | COc1ccc(N2C(=O)C3C4C=CC(C3C2=O)N(C)C4=O)cc1 (stereo not drawn) | -3.66
35 | Cc1cccc(N2C(=O)C(Cl)=C(Nc3cccc(O)c3)C2=O)c1C | -2.88
36 | O=C(Cc1ccc(Cl)cc1)N(Cc1ccccc1)c1ccccn1 | -7
37 | Cc1ccccc1CCNC(=O)C1CCN(c2nnc(C)c3c(C)n(-c4ccccc4)nc23)CC1 | 8.46
38 | Cc1cc(NC(=O)CCC2CCCCC2)no1 | 2.01
39 | Cc1cccc(OCCCN2CCCC2)c1C | -2.42
40 | CC(C)(C)c1ccc(C2c3c(-c4ccccc4O)n[nH]c3C(=O)N2CC2CCCO2)cc1 (stereo not drawn) | -1.35
41 | CNC(=O)C(C)NC(=O)C1O[C@@H]2OC(C)(C)O[C@@H]2[C@H]2OC(C)(C)O[C@@H]12 (stereo partly drawn) | -1.25
42 | C=CCn1c(SCC(=O)NCCO)nc2sc3c(c2c1=O)CCCC3 | 1.02

Row | SMILES | % Inhibition @ 10 uM [%]
43 | NC(=S)N/N=C/c1sc(O)nc1-[n+]1ccc(-c2ccncc2)cc1 | -1.47
44 | CN(C(=O)Cn1nnc2sc(-c3ccccc3)cc2c1=O)C1CCCCC1 | 0.758
45 | COc1cccc(C2C3=C(O)CCCC3=NC(C)=C2C(=O)OC2CCCC2)c1 (stereo not drawn) | 0.736
46 | COCCNC(=O)CN(c1ccc(C)cc1)S(=O)(=O)c1ccc(F)cc1 | -2.28
47 | CCOc1cc(C(=O)N(Cc2nc(-c3cccc(C)c3)no2)C(C)C)cc(OCC)c1OCC | -1.54
48 | O=C(NCc1ccco1)c1cc2n(n1)C(C(F)(F)F)CC(c1ccc(Br)cc1)N2 (stereo not drawn) | -2.06
49 | CCc1ccc(N2CC(C(=O)NCc3ccc4c(c3)OCO4)CC2=O)cc1 (stereo not drawn) | 0.431
50 | CCc1ccccc1NC(=O)CN1CC(c2ccccc2)CC1=O (stereo not drawn) | 1.34
51 | Cc1cccc(C(=O)N2CCC(C)CC2)c1 | 5.24
52 | O=C(CCN1C(=O)c2cccc3cccc(c23)C1=O)N1CCN(c2ccc(F)cc2)CC1 | -7.58
53 | Cc1cccnc1NC(=O)c1c(O)nc2c(c1O)CCCC2 | -3.93
54 | CCCOc1ccc(CNC(=O)Cn2cc3c(n2)-c2c(oc(C(=O)N4CCCC4)c2C)CC3)cc1 | 6.45
55 | CC1(C)CC(=O)C2=C(C1)OC(N)=C(C#N)C21C(=O)Nc2cc(Cl)ccc21 (stereo not drawn) | -3.26
56 | CCn1c(SCc2nc(O)c3ccccc3n2)nnc1-c1cccnc1 | -5.62
57 | Cc1cc(Br)ccc1OCC(=O)Nc1ccc(S(=O)(=O)N2CCCCCC2)cc1 | 1.62
58 | COc1cc(/C=C2/C(=N)N3OC(C)=CC3=NC2=O)cc(Cl)c1OCCOc1cc(C)cc(C)c1 | 3.63
59 | Cc1cc(C)cc(-n2nnc(-c3nc(-c4cccs4)no3)c2N)c1 | 3.22
60 | COc1ccc(/C=C/C(=O)NCc2ccco2)cc1 | -6.06
61 | CC1(C)CC(=O)C(/C=N/CCN2CCN(CC(=O)Nc3cc(Cl)cc(Cl)c3)CC2)=C(O)C1 | 0.722
62 | Cc1c(C(c2ccc(Cl)cc2)c2c(C)n(C)n(-c3ccccc3)c2=O)c(=O)n(-c2ccccc2)n1C | -4.87
63 | Nc1ncnc(N2CCOCC2)c1[N+](=O)[O-] | -8.51
